# Experimental data from PMC12136788.
# The other results are listed elsewhere or left out.
# T1: UNK ZnF1-3 (human, UniProt Q9C0B0 31-174)
# T1 sequence: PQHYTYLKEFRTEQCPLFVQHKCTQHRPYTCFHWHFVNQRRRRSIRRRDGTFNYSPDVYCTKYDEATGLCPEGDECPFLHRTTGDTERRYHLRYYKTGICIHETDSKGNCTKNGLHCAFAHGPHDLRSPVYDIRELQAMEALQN
# B1: chr5:28717518:28717519:+_ENSMUSG00000048271_ENSMUST00000114884|mus_mus|motif|central (ssRNA)
# RNA: GGGAGUUCUACAGUCCGACGAUCAGCAACAGGUGUAGAGGAGCAUCGGUUACCACUCAUCUCCAAAACAUGUGAAGGUGCGGUGGGGAGUUCACGGAGAUUACUGUUCCUGGGAGCAGUGGGUUGCAUCUGCUGCAUGGGCCGCAACAGAGGAUUGAGCAUCA
# B2: 25258235_25258355_2025_CDS_ENSG00000155592_ENST00000328086|human|control|control (ssRNA)
# RNA: GGGAGUUCUACAGUCCGACGAUCGUUCAACAAAGCAUCCAUGUCCUCAAAGAAGGCGCAGGGUUCUAGCAUGUGGCCAUUUCUCACCUUUCGAUAGCUUUUCUGGAGACUUUUGAACUUGGUUCGACACUGUUCUGGGGUUCUCAACAGAGGAUUGAGCAUCA
# B3: chr15:78798593:78798594:+_ENSMUSG00000033088_ENSMUST00000109689|mus_mus|FALSE|FALSE (ssRNA)
# RNA: GGGAGUUCUACAGUCCGACGAUCCCCAGGAGGAUCCUGGAAGAAGAGGGAAGGCUCGGGGGCCUGGCGUGGCGGGGAGGAGAAGGAGGGAGCGUCUCUGUGUCCGAUACAUACAGGAGUGGGAAUGUGGGGCGGCUCAUGCAUCAACAGAGGAUUGAGCAUCA
# B4: chr1:220276048:220276049:+_ENSG00000067704_ENST00000302637|hu_hu|hu_hu_hu_mus_True|48_108 (ssRNA)
# RNA: GGGAGUUCUACAGUCCGACGAUCGCAAACAGCUUCAUUGGCGGGAAUUGUCCAAGGCUGGGUGGUCCAAACUAAAACGCUAACAGGAGAUGAACCAUCUGUAAGAGACUCCAACUUCGGAGGAGGUCUCAGGAGGGGGAAUCUCAACAGAGGAUUGAGCAUCA
# B5: chr2:232320318:232320319:-_ENSG00000115053_ENST00000322723|hu_hu|hu_hu_hu_mus_True|48_78 (ssRNA)
# RNA: GGGAGUUCUACAGUCCGACGAUCACUAUUAAAGUCUACAAAACCAAACCCUUUGGAGGACCCAGUUUCCCGAUCAGUGACUAUUCUUGCCCGAACGGAGCCCUCAAAUGAUUCUUUUAAGGUCUCUUCAGUGGUAUCCUCAGACAACAGAGGAUUGAGCAUCA
# B6: chr5:116376479:116376480:+_ENSMUSG00000029516_ENSMUST00000051704|mus_mus|FALSE|FALSE (ssRNA)
# RNA: GGGAGUUCUACAGUCCGACGAUCCUGCUCCAGGAGGGAUCUCUGAGUCUCAGAGGCCUUCAGCUCCACCUCCUUCUGACUAAGCACAGCCUCCACCUCUGACACUCUGCGAUGUAACCGGGUCAUUUCCUGCUCCAUCUUGUGCAACAGAGGAUUGAGCAUCA
# B7: chr8:133025090:133025091:+_ENSG00000132294_ENST00000254624|hu_mus|motif|central (ssRNA)
# RNA: GGGAGUUCUACAGUCCGACGAUCGAAAAGACUAACUGCAAUGGUUUUCCUUUGCAUGCAAAGCAUGCCUUUUAAAAUCACGGAGAAACACAACAUUUUGUACAGCAAAGCUUGUGUUCUGCAUGAAUGCAAGUGAAUAUAUAUCAACAGAGGAUUGAGCAUCA
# B8: chr2:157388187:157388188:+_ENSMUSG00000067786_ENSMUST00000109526|mus_hu|motif|central (ssRNA)
# RNA: GGGAGUUCUACAGUCCGACGAUCUUUUGUAGAGGUGGUCCCUGUCCUCCAGGAGCUUACAAUCUAGCUGGGGAGACACAACGGAUGCACACUUAAACAAUCAGUACAAUUAGCGAUUACCACAAUAUUGACCACAACUGCAUGCAACAGAGGAUUGAGCAUCA
# B9: chr17:45747064:45747065:+_ENSG00000108424_ENST00000290158|hu_hu|hu_hu_hu_mus_True|58_58 (ssRNA)
# RNA: GGGAGUUCUACAGUCCGACGAUCGCCCACAGUCCACGCUGUUGUGUCUCGAACAACUACACUGGGGUCUUUCAUUAAUUCUAUUAGGGUGGGCAUAGCCUGUAUGACUAAUGGUUUCAGUUGAUUAGGCUCUGGUCCUUCCAACAACAGAGGAUUGAGCAUCA
# B10: 53237077_53237197_787_CDS_ENSG00000162378_ENST00000294353|human|control|control (ssRNA)
# RNA: GGGAGUUCUACAGUCCGACGAUCCCGAACUACAUCCAGUAUCUGGGUAGUUGUCAUUUUUAAACAUUUCAAGUGGUGCAUGGUUAGAGACUUGAGUCGGUCUUUGCAGGCCAGUAGAGCAGUGAUGUCUGUGAUUGAGGUGUUCAACAGAGGAUUGAGCAUCA
# B11: chr1:87185206:87185207:+_ENSG00000097033_ENST00000482504|hu_mus|motif|central (ssRNA)
# RNA: GGGAGUUCUACAGUCCGACGAUCCGGGUUGUUUAUACGACUUGGUGCUUUUCUAUCCAGUUUCUCAUAAACAAAUUCUUCGGUCCUGGCAUUUGGAUUUGGCUGCAACAGCACUUCGGUCUGCUUCAUUAUCUUUUCUGUCCACAACAGAGGAUUGAGCAUCA
# B12: chr18:24791317:24791318:+_ENSMUSG00000024271_ENSMUST00000025120|mus_mus|FALSE|FALSE (ssRNA)
# RNA: GGGAGUUCUACAGUCCGACGAUCACUUCCAGUGAAGAAGUACUUGUUAUCAGGACUCCAGUCACAAGACCAAAUGAUUCUACUAUGCACAGAAGUAAUUUUGUUGGUGAAUGCAAAGAGACUAAAAAAUGGAUCAAACUCCGACAACAGAGGAUUGAGCAUCA
# B13: chr7:54825262:54825263:-_ENSG00000132432_ENST00000352861|hu_hu|hu_hu_hu_mus_False|18_68 (ssRNA)
# RNA: GGGAGUUCUACAGUCCGACGAUCCUGCCGGCUGGGCUCCACAAACUGCAUUACCUGAUCCAUGUUUUACCCAACCGGGAUUGAGAGCGUAGAGACACGUAGCUCAGGAGAGAACCGGAUGGAGGCCAACCGGAAGCUGGCAACCAACAGAGGAUUGAGCAUCA
# B14: chr4:17845017:17845018:+_ENSG00000109805_ENST00000514176|hu_mus|hu_hu_hu_mus_False|28_38 (ssRNA)
# RNA: GGGAGUUCUACAGUCCGACGAUCGCUCUCUUAACUUGUAUCUUCAUUAAGGAACUCUGCAAGGUUAAGUUUACUUUUCUGUAGCGCAGCUGUUUUGCUCGUCUUGGUAGUCUCAUCCUUCAUUUCUGAUGGUGGUUCAUGAUCCAACAGAGGAUUGAGCAUCA
# Biological target: T1, UNK ZnF1-3
# Test: nsRBNS (natural sequence RNA bind-n-seq); RBNS binding buffer (assumed for nsRBNS): 25 mM Tris pH 7.5, 150 mM KCl, 3 mM MgCl2, 0.01% Triton X-100, 500 ug/ml BSA, 20 U/ml SUPERase-In, 4 C; UNK is unkempt and MSI1 is Musashi-1; names of the RNAs are library labels; protein concentration not given here; high values mean tight binding
row,Binder,binding signal
1,B1,1.69 enrichment R
2,B2,0.746 enrichment R
3,B3,2.17 enrichment R
4,B4,1.63 enrichment R
5,B5,0.522 enrichment R
6,B6,0.605 enrichment R
7,B7,0.586 enrichment R
8,B8,1.43 enrichment R
9,B9,0.57 enrichment R
10,B10,0.911 enrichment R
11,B11,0.329 enrichment R
12,B12,1.22 enrichment R
13,B13,1 enrichment R
14,B14,0.371 enrichment R
